SMILES strings stand for the structures. Counter-ions that a name gives are not always drawn. The full ranking holds about 1,900 compounds; the median of “cell viability of compound + 1 nM pemigatinib relative to pemigatinib-only (DMSO) wells” is about 0.95, and the lowest 2% start at about 0.22. The list shows a part of the results.

For this assay, the system named is PDC-DUC18828. In words: cell viability of compound + 1 nM pemigatinib relative to pemigatinib-only (DMSO) wells (fraction); PDC-DUC18828 is a patient-derived cholangiocarcinoma cell line; higher = less growth inhibition. Conditions: first compound 1 µM; pemigatinib concentration 1 nM; 72 h. The procedure:
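Selleck Bioactive library screen in the patient-derived FGFR2 fusion-positive ICC cell line PDC-DUC18828 (500 cells/well). Each compound was tested at 1 uM with 1 nM pemigatinib, in triplicate, for 72 h. Viability was read by CellTiter-Glo and normalised to plate DMSO controls. Value is the paper's averaged normalised viability.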
Regarding `C/C(=C\C(=O)Nc1ccccc1C(=O)O)c1ccc2ccccc2c1` + CCN1C(=O)N(c2c(F)c(OC)cc(OC)c2F)Cc2cnc3[nH]c(CN4CCOCC4)cc3c21 [pemigatinib], the cell viability amounted to 1.03.

As for `O=C(c1ccc(/C=C/c2n[nH]c3ccccc23)cc1)N1CCNCC1` + CCN1C(=O)N(c2c(F)c(OC)cc(OC)c2F)Cc2cnc3[nH]c(CN4CCOCC4)cc3c21 [pemigatinib], the cell viability turned out to be 0.999.

For `C[C@H](Cc1cc2c(c(C(N)=O)c1)N(CCCO)CC2)NCCOc1ccccc1OCC(F)(F)F` [Silodosin] + CCN1C(=O)N(c2c(F)c(OC)cc(OC)c2F)Cc2cnc3[nH]c(CN4CCOCC4)cc3c21 [pemigatinib], the cell viability amounted to 1.06.

As to `CN(C)CCOc1ccc(-c2nc(-c3ccncc3)c(-c3ccc4c(c3)CC/C4=N\O)[nH]2)cc1` + CCN1C(=O)N(c2c(F)c(OC)cc(OC)c2F)Cc2cnc3[nH]c(CN4CCOCC4)cc3c21 [pemigatinib], the cell viability was determined as 1.16.

For the molecule `Nc1c(CC(=O)O)cccc1C(=O)c1ccc(Br)cc1` [Bromfenac Sodium] + CCN1C(=O)N(c2c(F)c(OC)cc(OC)c2F)Cc2cnc3[nH]c(CN4CCOCC4)cc3c21 [pemigatinib], the cell viability worked out at 0.905.

As for `CC1(C)CC[C@]2(C(=O)O)CC[C@]3(C)C(=CC[C@@H]4[C@@]5(C)CC[C@H](O)C(C)(C)[C@@H]5CC[C@]43C)[C@@H]2C1` [Oleanolic Acid] + CCN1C(=O)N(c2c(F)c(OC)cc(OC)c2F)Cc2cnc3[nH]c(CN4CCOCC4)cc3c21 [pemigatinib], the cell viability was 0.932.

`O=C(O)CCCCC(CCSCc1ccccc1)SCc1ccccc1` (stereo not drawn) + CCN1C(=O)N(c2c(F)c(OC)cc(OC)c2F)Cc2cnc3[nH]c(CN4CCOCC4)cc3c21 [pemigatinib]: the cell viability stood at 1.

Regarding `O=c1c(-c2ccc(O)cc2)coc2cc(O)ccc12` [Daidzein] + CCN1C(=O)N(c2c(F)c(OC)cc(OC)c2F)Cc2cnc3[nH]c(CN4CCOCC4)cc3c21 [pemigatinib], the cell viability amounted to 0.988.

Turning to `C[C@H]1O[C@@H](n2cc(F)c(=O)[nH]c2=O)[C@H](O)[C@@H]1O` [Doxifluridine] + CCN1C(=O)N(c2c(F)c(OC)cc(OC)c2F)Cc2cnc3[nH]c(CN4CCOCC4)cc3c21 [pemigatinib], the cell viability is 1.02.

Regarding `CC(C)(C)c1nc(-c2cccc(NS(=O)(=O)c3c(F)cccc3F)c2F)c(-c2ccnc(N)n2)s1` + CCN1C(=O)N(c2c(F)c(OC)cc(OC)c2F)Cc2cnc3[nH]c(CN4CCOCC4)cc3c21 [pemigatinib], the cell viability was 0.884.

Regarding `Cc1cc(/C=C2/SC(=S)NC2=O)c(C)n1-c1cccnc1` [Optovin] + CCN1C(=O)N(c2c(F)c(OC)cc(OC)c2F)Cc2cnc3[nH]c(CN4CCOCC4)cc3c21 [pemigatinib], the cell viability worked out at 0.931.

Consider `Cc1cc(C)c(Nc2ccnc(Nc3ccc(C#N)cc3)n2)c(C)c1` [Dapivirine (TMC120)] + CCN1C(=O)N(c2c(F)c(OC)cc(OC)c2F)Cc2cnc3[nH]c(CN4CCOCC4)cc3c21 [pemigatinib], for which the cell viability was 0.85.

Regarding `Nc1ncnc2c1ncn2[C@@H]1O[C@H](CO)[C@@H](O)[C@H]1O` [Adenosine] + CCN1C(=O)N(c2c(F)c(OC)cc(OC)c2F)Cc2cnc3[nH]c(CN4CCOCC4)cc3c21 [pemigatinib], the cell viability was 1.02.

As to `O=C(c1ccc(Nc2nccc(-c3cc4ccccc4s3)n2)cc1)N1CCC(N2CCCC2)CC1` [IKK-16 (IKK Inhibitor VII)] + CCN1C(=O)N(c2c(F)c(OC)cc(OC)c2F)Cc2cnc3[nH]c(CN4CCOCC4)cc3c21 [pemigatinib], the cell viability is 0.83.

Take `Clc1ccc(CSC(Cn2ccnc2)c2ccc(Cl)cc2Cl)cc1` (stereo not drawn) [Sulconazole Nitrate] + CCN1C(=O)N(c2c(F)c(OC)cc(OC)c2F)Cc2cnc3[nH]c(CN4CCOCC4)cc3c21 [pemigatinib]: the cell viability stood at 0.906.

In the case of `CC(=O)O[C@@]12CO[C@@H]1C[C@H](O)[C@@]1(C)C(=O)[C@H](O)C3=C(C)[C@@H](OC(=O)[C@H](O)[C@@H](NC(=O)OC(C)(C)C)c4ccccc4)C[C@@](O)([C@@H](OC(=O)c4ccccc4)[C@H]21)C3(C)C` [Docetaxel] + CCN1C(=O)N(c2c(F)c(OC)cc(OC)c2F)Cc2cnc3[nH]c(CN4CCOCC4)cc3c21 [pemigatinib], the cell viability is 0.245.

Turning to `O=C(/C=C/c1ccccc1)NC(NC(=S)Nc1cccc2cccnc12)C(Cl)(Cl)Cl` (stereo not drawn) [Salubrinal] + CCN1C(=O)N(c2c(F)c(OC)cc(OC)c2F)Cc2cnc3[nH]c(CN4CCOCC4)cc3c21 [pemigatinib], the cell viability was 0.88.

Turning to `CO[C@H]1C[C@@H]2CC[C@@H](C)[C@@](O)(O2)C(=O)C(=O)N2CCCC[C@H]2C(=O)O[C@H]([C@H](C)C[C@@H]2CC[C@@H](OCCO)[C@H](OC)C2)CC(=O)[C@H](C)/C=C(\C)[C@@H](O)[C@@H](OC)C(=O)[C@H](C)C[C@H](C)/C=C/C=C/C=C/1C` [Everolimus (RAD001)] + CCN1C(=O)N(c2c(F)c(OC)cc(OC)c2F)Cc2cnc3[nH]c(CN4CCOCC4)cc3c21 [pemigatinib], the cell viability stood at 0.56.

On to `Fc1ccc(Cl)cc1-c1nc(Nc2ccncc2)c2nccnc2n1` + CCN1C(=O)N(c2c(F)c(OC)cc(OC)c2F)Cc2cnc3[nH]c(CN4CCOCC4)cc3c21 [pemigatinib], for which the cell viability worked out at 0.97.

Turning to `CC1CNc2c(cccc2S(=O)(=O)N[C@@H](CCCNC(=N)N)C(=O)N2CC[C@@H](C)C[C@@H]2C(=O)O)C1` (stereo partly drawn) [Argatroban] + CCN1C(=O)N(c2c(F)c(OC)cc(OC)c2F)Cc2cnc3[nH]c(CN4CCOCC4)cc3c21 [pemigatinib], the cell viability was 1.12.

For `CN(C)CCN(Cc1ccccc1)c1ccccn1` [Tripelennamine HCl] + CCN1C(=O)N(c2c(F)c(OC)cc(OC)c2F)Cc2cnc3[nH]c(CN4CCOCC4)cc3c21 [pemigatinib], the cell viability was 0.834.

As for `COc1ccccc1N1CCN(CCN(C(=O)C2CCCCC2)c2ccccn2)CC1` + CCN1C(=O)N(c2c(F)c(OC)cc(OC)c2F)Cc2cnc3[nH]c(CN4CCOCC4)cc3c21 [pemigatinib], the cell viability came to 1.03.

On to `Oc1ccc(OC2CCCCO2)cc1` (stereo not drawn) [Deoxyarbutin] + CCN1C(=O)N(c2c(F)c(OC)cc(OC)c2F)Cc2cnc3[nH]c(CN4CCOCC4)cc3c21 [pemigatinib], for which the cell viability was found to be 1.06.

(Values after the supplement of paper PMC9588766.)
